Among all 310,000 compounds or so, about 14,000 (4.5%) showed an effect of 50% or more. The effect is printed as a negative number. The list shows a part of the results.
These compounds were tested against human ether-à-go-go-related gene (hERG) potassium channel (human, UniProt Q12809) (assay: primary screen, population patch clamp on CHO cells stably expressing hERG).
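Note: peak tail current of the secondary pulse compared with the same well before compound.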

Sequence of human ether-à-go-go-related gene (hERG) potassium channel (Q12809 whole entry, looked up): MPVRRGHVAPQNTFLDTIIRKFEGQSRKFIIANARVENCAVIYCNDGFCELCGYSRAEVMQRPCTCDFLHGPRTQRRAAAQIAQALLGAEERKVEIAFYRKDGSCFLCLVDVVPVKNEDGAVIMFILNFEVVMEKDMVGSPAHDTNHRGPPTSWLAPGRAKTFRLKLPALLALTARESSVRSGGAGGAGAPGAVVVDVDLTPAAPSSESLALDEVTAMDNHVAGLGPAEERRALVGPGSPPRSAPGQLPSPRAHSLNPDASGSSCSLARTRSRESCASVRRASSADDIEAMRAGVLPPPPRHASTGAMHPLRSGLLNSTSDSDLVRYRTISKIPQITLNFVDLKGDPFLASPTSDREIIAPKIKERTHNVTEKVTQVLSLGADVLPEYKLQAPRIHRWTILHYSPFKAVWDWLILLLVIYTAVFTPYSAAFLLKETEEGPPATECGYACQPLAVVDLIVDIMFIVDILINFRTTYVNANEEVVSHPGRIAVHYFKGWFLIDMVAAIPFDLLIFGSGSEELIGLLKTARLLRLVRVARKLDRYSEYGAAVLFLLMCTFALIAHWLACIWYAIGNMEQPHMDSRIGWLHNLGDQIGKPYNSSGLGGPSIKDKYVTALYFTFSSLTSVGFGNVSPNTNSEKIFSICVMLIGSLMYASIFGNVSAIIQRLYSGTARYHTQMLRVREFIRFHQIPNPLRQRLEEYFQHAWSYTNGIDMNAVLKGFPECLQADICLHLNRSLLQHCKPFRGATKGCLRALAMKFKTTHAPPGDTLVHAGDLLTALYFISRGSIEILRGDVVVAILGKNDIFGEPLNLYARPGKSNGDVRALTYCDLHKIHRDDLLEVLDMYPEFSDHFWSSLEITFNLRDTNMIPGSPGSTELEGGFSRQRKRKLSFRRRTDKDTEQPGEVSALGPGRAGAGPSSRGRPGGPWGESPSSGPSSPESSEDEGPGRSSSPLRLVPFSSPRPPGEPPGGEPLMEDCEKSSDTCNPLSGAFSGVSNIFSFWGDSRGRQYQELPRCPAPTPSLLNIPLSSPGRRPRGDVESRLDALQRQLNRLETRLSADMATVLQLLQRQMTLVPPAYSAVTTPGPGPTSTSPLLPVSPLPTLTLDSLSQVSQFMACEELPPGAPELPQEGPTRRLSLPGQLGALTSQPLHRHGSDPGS

Point of comparison: `CCCNC(=O)c1nn2c(C(F)(F)F)cc(-c3ccccc3)nc2c1Cl`, “hERG current change (%, negative = inhibition) at 10uM” value -4.1%. Against it:
- COc1ccc(CNC(=O)CCc2ccc(S(=O)(=O)N3CCCCCC3)cc2)cc1 — lower, -54.9%
- COc1cc(/C=C/[N+](=O)[O-])ccc1O — lower, -5.46%
- CCNC(=O)c1ccc(-n2nc(C(F)(F)F)c3c2CCCC3)cc1 — lower, -14.1%
- Nc1ccc(-c2nc3nc(N)nc(N)c3nc2-c2ccc(N)cc2)cc1 — higher, 16.9%
- COC(=O)/C=C1/SC(=NC(=O)c2ccc(OC)cc2)NC1=O — higher, 19.6%
- CCCN(C(=O)c1ccc(N2CCCC2=O)cc1)C1CCS(=O)(=O)C1 (centres unmarked) — higher, 5.68%
- CC(=O)c1ccc(OCC(C)C)c(CN2CCCCC2)c1.Cl — lower, -19%
- C=C(Cl)COc1ccc2c(CC)cc(=O)oc2c1 — lower, -33.9%
- O=C(NCC(=O)N1CCN(c2ccccc2)CC1)c1ccc(Cl)cc1 — higher, 13.6%
- COc1ccc(CNC(=O)C2CCNCC2)cc1 — higher, 20.6%
- O=C(O)COc1ccc(S(=O)(=O)NCCc2ccccc2)cc1 — higher, 6.4%
- CCN(CC)CCCN1C(=O)CSC1c1ccc([N+](=O)[O-])cc1.Cl (centres unmarked) — lower, -72.8%
- CCS(=O)(=O)N1CCC(C(=O)NCC2CCCO2)CC1 (centres unmarked) — lower, -10.8%
- O=c1[nH]c(CN2CCN(S(=O)(=O)c3ccccc3C(F)(F)F)CC2)nc2sc3c(c12)CCCC3 — higher, 10.9%
- O=C(NCCC(=O)N1CCN(Cc2c(F)cccc2Cl)CC1)c1ccc(Cl)cc1 — lower, -46%
- COc1ccc(/C=N/NC(N)=S)cc1OC(=O)c1cccc2ccccc12 — higher, 1.42%
- CC(=O)N1CCN(S(=O)(=O)c2cccc(C(=O)OCC(=O)N(CCC#N)c3ccc(F)cc3)c2)CC1 — higher, 9.96%
- COc1cccc(CN2CC(C(=O)NCCn3ccc(C)n3)CCC2=O)c1 (centres unmarked) — higher, 0.915%
- CN(C)CCCNC(=O)c1ccccc1Oc1ccccc1 — lower, -23.4%
- Cc1csc2nc(CNC(=O)c3cccc(C(F)(F)F)c3)cn12 — lower, -21.3%
- CC(C)NS(=O)(=O)c1ccc(OCC(=O)N2CCCC2)c(Cl)c1 — higher, -1.74%
- Cc1cccc(C)c1N1CC(=O)N(c2c(C)cccc2C)CC1=O — higher, -1.91%
- Cc1nc2sc3c(NCc4ccco4)ncnc3c2c2c1COC(C)(C)C2 — higher, 11%
- C=CCN(c1ccccc1)S(=O)(=O)c1cccc(C(=O)Nc2nc3ccccc3[nH]2)c1 — higher, 15.6%
- O=C(NC(=S)Nc1ccc2[nH]c(=O)[nH]c2c1)c1cncc(Br)c1 — higher, 5.93%
- CCCc1cc2c(=O)c(-c3ccc4c(c3)OCCO4)coc2cc1OS(C)(=O)=O — higher, 23.4%
- COc1ccc(-c2cc(=Nc3ccc(C)cc3)c3ccccc3o2)cc1 — higher, 5.87%
- O=C(Nc1ccc(Br)cc1Cl)c1ccc2c(=O)n3c(nc2c1)CCC3 — lower, -26.1%
- Cc1ccc(S(=O)(=O)CCC(=O)N2CCN(c3ccccc3F)CC2)cc1 — lower, -12.2%
- CC(C)CC(NC(N)=O)C(=O)Nc1cccc([N+](=O)[O-])c1 (centres unmarked) — higher, -0.263%
- Cc1ccccc1NC(=O)CN(C)S(=O)(=O)c1cccc2cccnc12 — lower, -6.84%
- COc1ccc(NC(=O)c2ccc(CN(c3cc(Cl)ccc3C)S(=O)(=O)c3ccccc3)cc2)cc1OC — higher, 0.171%
- O=C(CSc1n[nH]c(-c2ccccn2)n1)Nc1cccc(Cl)c1 — higher, -0.85%
- Cc1cc(C)n(-c2nnc(C)n2/N=C/c2ccccc2OCc2ccccc2Cl)n1 — lower, -28.2%
- O=C(O)c1cc(N/N=C/c2cccs2)ccc1Cl — higher, 11.6%
- OCCCn1c(C2CCCN2c2nc(-c3ccc(F)cc3)cs2)nc2cc(Cl)c(N3CCCCC3)cc21 (centres unmarked) — higher, 11.8%
- CCOc1ccc(Br)cc1S(=O)(=O)NC1CC(C)(C)NC(C)(C)C1 — higher, 13.1%
- C=CCc1cc(C=O)cc(OC)c1OCc1ccc(Cl)cc1 — higher, 2.79%
- CCS(=O)(=O)NC(C)C(c1cccs1)N1CCN(c2ccc(OC)cc2)CC1 (centres unmarked) — lower, -7.31%
- Cc1cccc(-n2ncc3c(N4CCc5ccccc54)ncnc32)c1 — higher, 19.8%
- CCCOc1cccc(C(=O)Nc2cc(NC(=O)c3ccco3)ccc2OC)c1 — lower, -81.2%
- CCOc1ccccc1NC(=O)C(=O)N/N=C/c1cc(Br)ccc1O — higher, 16.2%
- C=CC12C=CC=CN1C(C(=O)OC)=C(C(=O)OC)C(C(=O)OC)=C2C(=O)OC (centres unmarked) — higher, 0.682%
- CC1(NC(=O)Cc2c(Cl)cccc2Cl)CCS(=O)(=O)C1 (centres unmarked) — higher, 4.62%
- COC(=O)c1ccc(SC2CCCCC2)c([N+](=O)[O-])c1 — higher, 34.7%
- CCCNC(=O)CS(=O)Cc1nc(-c2ccc(OC)cc2)oc1C (centres unmarked) — higher, -2.48%
- Cc1cc(-c2cc(C(=O)NCc3ccccc3)on2)nc(NCC2CC2)n1 — higher, 11.6%
- CC1CCN(S(=O)(=O)c2ccc(C(=O)NCc3ccc4c(c3)OCO4)cc2)CC1 — lower, -6.57%
- CC1=CCC2([N+](=O)[O-])CN(CC(=O)O)CC1([N+](=O)[O-])C2 (centres unmarked) — lower, -10.2%
- O=C(NC1CCCc2ccccc21)c1cccc(Br)c1 (centres unmarked) — higher, 0.874%
- COc1ccc(NC(=O)CN(C)C(=O)Cn2cnc3c2c(=O)n(C)c(=O)n3C)cc1 — higher, 0.754%
- COc1cc(NC(=O)c2ccccc2)c(OC)cc1NC(=O)CN1CCOCC1 — lower, -7.18%
- COc1ccc(CCN2C(=O)CS/C2=N/NC(=O)c2ccccc2F)cc1OC — higher, 23.6%
- O=C(NC(=S)NNC(=O)c1ccco1)c1ccc(F)cc1 — higher, 20.3%
- C[n+]1cc[nH]c1SCC(=O)c1ccccc1.[Br-] — higher, 4.16%

— publication PMC4336329 (PLoS ONE, 2015)
